Screen size: about 310,000 compounds; about 2,200 (0.71%) showed an effect of 50% or more. The effect is printed as a negative number. The list shows a part of the results.

The values below come from article PMC4336329 (PLoS ONE, 2015).

Sequence of human ether-à-go-go-related gene (hERG) potassium channel (Q12809 whole entry, looked up): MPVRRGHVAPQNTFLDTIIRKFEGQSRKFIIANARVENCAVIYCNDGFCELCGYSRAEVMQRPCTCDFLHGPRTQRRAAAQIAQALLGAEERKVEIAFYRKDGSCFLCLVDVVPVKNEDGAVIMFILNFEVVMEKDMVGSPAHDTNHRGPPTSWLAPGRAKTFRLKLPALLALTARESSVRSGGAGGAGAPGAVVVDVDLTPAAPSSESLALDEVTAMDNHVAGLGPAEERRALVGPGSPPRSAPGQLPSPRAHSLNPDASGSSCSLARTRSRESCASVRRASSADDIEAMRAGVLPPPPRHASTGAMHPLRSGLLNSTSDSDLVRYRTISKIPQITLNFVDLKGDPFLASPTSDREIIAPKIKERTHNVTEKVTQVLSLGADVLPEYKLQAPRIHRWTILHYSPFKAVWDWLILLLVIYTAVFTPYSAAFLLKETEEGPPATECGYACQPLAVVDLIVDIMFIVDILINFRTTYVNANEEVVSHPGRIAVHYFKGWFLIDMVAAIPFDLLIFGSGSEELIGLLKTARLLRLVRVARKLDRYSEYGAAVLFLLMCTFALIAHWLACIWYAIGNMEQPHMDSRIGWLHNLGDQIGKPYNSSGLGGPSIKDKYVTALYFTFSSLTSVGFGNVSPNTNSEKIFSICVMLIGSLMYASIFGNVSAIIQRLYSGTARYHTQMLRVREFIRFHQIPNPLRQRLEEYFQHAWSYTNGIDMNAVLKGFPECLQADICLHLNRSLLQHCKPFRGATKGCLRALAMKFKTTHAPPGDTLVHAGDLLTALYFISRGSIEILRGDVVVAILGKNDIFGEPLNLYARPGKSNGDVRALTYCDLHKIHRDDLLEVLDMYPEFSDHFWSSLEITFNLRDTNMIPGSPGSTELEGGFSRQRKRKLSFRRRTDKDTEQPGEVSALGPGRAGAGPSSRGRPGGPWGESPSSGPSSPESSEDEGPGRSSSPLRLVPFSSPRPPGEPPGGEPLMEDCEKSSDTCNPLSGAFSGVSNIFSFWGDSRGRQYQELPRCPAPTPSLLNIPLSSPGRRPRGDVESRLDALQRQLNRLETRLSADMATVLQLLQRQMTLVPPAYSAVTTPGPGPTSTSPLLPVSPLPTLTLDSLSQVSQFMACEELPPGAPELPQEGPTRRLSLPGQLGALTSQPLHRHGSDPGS

This assay has as its target human ether-à-go-go-related gene (hERG) potassium channel (human, UniProt Q12809). The assay is described as follows: primary screen, population patch clamp on CHO cells stably expressing hERG.
On to `Nn1c(SCC(=O)Nc2ccc(F)cc2)nnc1-c1cccnc1`, for which the “hERG current change (%, negative = inhibition) at 1uM” value is 20%.
As for `CCOC(=O)Nc1ccc2nc(N3CCCCCC3)sc2c1`, the “hERG current change (%, negative = inhibition) at 1uM” value was -28%.
As for `CCc1cccc(NC(=O)Cc2cn(C)c3ccccc23)c1`, the “hERG current change (%, negative = inhibition) at 1uM” value is listed as 2.88%.
For `CCOc1ccc(S(=O)(=O)N(C)c2ccc(OCC(=O)NCCc3ccc(OC)cc3)cc2)cc1`, the “hERG current change (%, negative = inhibition) at 1uM” value turned out to be 11.5%.
As for `C/C(=N\NC(=O)c1cccc(C)c1O)c1ccc(NC(=O)Cc2ccccc2)cc1`, the “hERG current change (%, negative = inhibition) at 1uM” value is given as -12.9%.
The result for `O=C1CC(c2ccccc2)CC(O)=C1C=NCCN1CCNCC1` (stereo not shown) reads 14.3%; that for `COc1ccc(-c2cc3c(=O)n(CC(=O)NCCCN4CCC(N5CCCCC5)CC4)nc(C)n3n2)cc1`, 7.62%; that for `Nc1ccc(CN2CCCCCC2)cc1`, 18.7%.
Turning to `O=C(CNS(=O)(=O)c1ccccc1)NCc1ccccn1`, the “hERG current change (%, negative = inhibition) at 1uM” value came to 4.41%.
Turning to `Cc1ccc(C=Nc2ccccc2C(N)=O)s1`, the “hERG current change (%, negative = inhibition) at 1uM” value amounted to 16.6%.
With `O=C(CCl)Nc1cccc(CP(=O)(c2ccccc2)c2ccccc2)c1`, the “hERG current change (%, negative = inhibition) at 1uM” value stood at 1.8%.
For `Cn1nc(C(C)(C)C)cc1NC(=O)Nc1ccc(Cl)cc1`, the “hERG current change (%, negative = inhibition) at 1uM” value came to 15.4%.
Consider `CCOC(=O)C1=C(C)OC(N)=C(C#N)C1c1ccsc1` (stereo not shown), for which the “hERG current change (%, negative = inhibition) at 1uM” value is 4.67%.
Regarding `COc1cc(OC)cc(C(=O)NCc2cc(C)nc3ccccc23)c1`, the “hERG current change (%, negative = inhibition) at 1uM” value is reported as -0.926%.
Take `Cc1cccc(NP(=O)(Oc2ccccc2F)Oc2ccccc2F)c1`: the “hERG current change (%, negative = inhibition) at 1uM” value came out at 3.98%.
As to `CC(/C=C/c1ccc2c(c1)OCO2)=N/NC(=O)c1ccc(C)nc1`, the “hERG current change (%, negative = inhibition) at 1uM” value was determined as 2.96%.
The result for `O=C(C1c2ccccc2Oc2ccccc21)N1CCN(c2ccc(Cl)cc2)CC1` reads 10.7%.
Regarding `Cc1cc(NS(=O)(=O)c2ccc(NC(=O)C(C)Oc3ccc(C(C)C)cc3)cc2)no1` (stereo not shown), the “hERG current change (%, negative = inhibition) at 1uM” value worked out at 18.5%.
Turning to `CCCN(CCC)CCCNC(=O)c1ccc2c(Cl)c3c(nc2c1)CCC3`, the “hERG current change (%, negative = inhibition) at 1uM” value is listed as 4.97%.
Take `Cc1nc(N2CCN(c3ccccn3)CC2)c2c(C)c(C(=O)N3CCN(c4ccc(F)cc4)CC3)sc2n1`: the “hERG current change (%, negative = inhibition) at 1uM” value worked out at 7.79%.
The result for `CN(CC1CCCN(CCc2ccc(Cl)cc2)C1)C(=O)C(=O)c1ccco1` (stereo not shown) reads -72.5%; that for `CC(C)c1ccc(NC(=S)NN2C(C)CCCC2C)cc1` (stereo not shown), 12.4%.
With `Cc1cccc(-n2ccnc2CN2CCN(C3CCCC3)C(CCO)C2)c1` (stereo not shown) the figure was -5.55%.
For `CCOc1ccc(OCC)c(NC(=O)CC2Oc3ccccc3NC2=O)c1` (stereo not shown), the “hERG current change (%, negative = inhibition) at 1uM” value was found to be 8.61%.
The result for `Cc1cccc(NCN2C(=O)C3C4C=CC(C4)C3C2=O)c1` (stereo not shown) reads -3.98%.
